Test results as given in PubChem BioAssay AID504466 (National Center for Advancing Translational Sciences (NCATS), 2011).
Hit rate of the full screen: of about 330,000 compounds, about 4,200 (1.3%) were called active. Inconclusive means that the source gave no clear call. Such entries were picked first, then a sample of the others. The call rests on the fitted dose curve; in most records, active means well fitted activation curve with a large enough effect; inconclusive means small, poorly fitted or top-dose-only effect; inactive means no such curve, though single readings can be large or run the other way. Potencies of inconclusive entries are doubtful fits and often do not repeat.

experiment: qHTS screen for small molecules that induce genotoxicity in human embryonic kidney (HEK293T) cells expressing luciferase-tagged ELG1; conditions: HEK293T ELG1-luciferase reporter, luminescence, 16 h; series mostly up to 46 µM; activity change, positive = activation: at the top concentration; further: nearly all actives have a fitted effect of over 60% in size; on activity change, positive = activation: % of control where 0% means no effect
Method in brief: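 Luminescence read-out: rising ELG1-luciferase signal, reflecting elevated ELG1 protein under genetic stress, flags genotoxic compounds. Cells were treated for 16 hr at 37 °C before ONE-Glo detection.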
Potency means the concentration at half of the fitted maximal effect; tags describe the fitted curve by direction and shape.

| Compound | Potency | activity change, positive = activation |
| --- | --- | --- |
| c1ccc2c(c1)nnn2Cc1nnc2sc(-c3ccc4c(c3)OCCO4)nn12 | inconclusive: 25.9 µM [activator, partial curve, poor fit] |  |
| Cc1ccc(S(=O)(=O)NC(CC(C)C)C(=O)NCC(c2ccco2)N2CCCCC2)cc1 (configuration not stated) | inconclusive: 23.1 µM [activator, partial curve, poor fit] |  |
| Brc1ccc(-c2nnc(-c3ccc4c(c3)OCO4)o2)o1 | inconclusive: 8.2 µM [activator, partial curve] |  |
| O=C(c1cc(-c2ccc(Cl)cc2)on1)N1CCN(c2ccccc2)CC1 | inconclusive: 3.66 µM [activator, full curve] |  |
| O=C(CSc1nnc(C2COc3ccccc3O2)o1)N1CCCCC1 (configuration not stated) | inconclusive: 18.4 µM [activator, partial curve, poor fit] |  |
| CCN(CC(=O)Nc1c(F)cccc1F)C(=O)CCCc1cccs1 |  | inactive: 1.29% |
| Cc1cccc(/C=N/NC(=O)C(C)Nc2cccc3ccccc23)n1 (configuration not stated) | inconclusive: 29.1 µM [activator, partial curve, poor fit] |  |
| COc1ccc(-c2c(-c3cc(OC)c(OC)c(OC)c3)noc2C)cn1 | inconclusive: 32.6 µM [activator, partial curve, poor fit] |  |
| O=C(COc1ccccc1Cl)Nc1ccc(Cl)cn1 | active: 3.16 µM |  |
| CCOc1ccc(C2C(C#N)=C(N)Oc3cc(C)[nH]c(=O)c32)cc1OC (configuration not stated) |  | inactive: 4.42% |
| CCc1cc2c(=O)c(-c3ccc4c(c3)OCCO4)coc2cc1OC(=O)c1ccco1 | active: 1.46 µM |  |
| COc1cc(/C(C)=N/Nc2ccc(C(=O)O)cc2)cc(OC)c1OC | inconclusive: 23.1 µM [activator, partial curve] |  |
| CC(C)(C)c1ccccc1NC(=S)NC1CCCCC1 |  | inactive: -9.37% |
| CCCCCCOC(=O)NCC(O)c1ccccc1 (configuration not stated) | active: 18.4 µM |  |
| COc1cccc2c(=O)c3ccoc3n(C)c12 |  | inactive: 5.64% |
| Cc1ccc(S(=O)(=O)Nc2cccc3ncccc23)s1 | inconclusive: 20.6 µM [activator, single point] |  |
| N#Cc1nc(-c2ccc(Cl)cc2)oc1NCc1ccco1 | inconclusive: 18.4 µM [activator, partial curve, poor fit] |  |
| Nc1nc2ccccc2n1C(=O)c1ccco1 | inconclusive: 7.31 µM [activator, partial curve] |  |
| NC(=O)c1c(NC(=O)c2ccco2)sc2c1CCC2 | active: 11.2 µM |  |
| CN(C)CC(O)COc1ccc(C(C)(C)c2ccc(OCC(O)CN(C)C)cc2)cc1 (configuration not stated) | inconclusive: 32.6 µM [activator, partial curve, poor fit] |  |
| COc1cccc(-n2cnc3sc(C)cc3c2=O)c1 | inconclusive: 18.3 µM [activator, partial curve, poor fit] |  |
| CNc1ccc(/C=C(\C#N)c2ccccn2)cc1[N+](=O)[O-] | active: 10.3 µM |  |
| O=C1c2ccccc2C(O)(Cc2ccccc2)N1Cc1ccco1 (configuration not stated) |  | inactive: -1.54% |
| Cn1cccc1-c1nc2ccc(NC(=O)c3cccs3)cc2[nH]1 | inconclusive: 20.6 µM [activator, partial curve, poor fit] |  |

| Compound | Potency | activity change, positive = activation |
| --- | --- | --- |
| O=C(CNC(=O)Cc1ccccc1)N=Nc1c(O)n(Cc2ccc3c(c2)OCO3)c2ccccc12 | inconclusive: 23.1 µM [activator, partial curve, poor fit] |  |
| COc1ccc(Nc2cnn(-c3nc4ccccc4s3)c(=O)c2Cl)cc1 | inconclusive: 5.17 µM [activator, full curve, poor fit] |  |
| COc1cc(SC)ccc1C(=O)OCC(=O)N1CCN(C(C)=O)CC1 |  | inactive: 0.681% |
| Cc1nn(-c2ccccc2)c(C)c1C(=O)OC(C)C(=O)NC1CCCCC1 (configuration not stated) |  | inactive: -0.547% |
| Nc1c(C(=O)N2CCCC2)sc2nc(-c3ccccc3)ccc12 | inconclusive: 10.3 µM [activator, partial curve, poor fit] |  |
| O=C(Nc1ccc(C(=O)N2CCCCC2)cc1)c1cccs1 | inconclusive: 20.6 µM [activator, partial curve, poor fit] |  |
| O=C(Nc1ccc2c(c1)nc1n2CCSC1)c1ccccc1 | inconclusive: 1.64 µM [activator, full curve, poor fit] |  |
| CC(=O)Nc1ccc(N=Cc2nc(-c3ccc(C)cc3)oc2O)cc1 | inconclusive: 6.51 µM [activator, partial curve, poor fit] |  |
| O=C(NC(=S)Nc1cc([N+](=O)[O-])ccc1O)c1ccc2c(c1)OCO2 | active: 1.03 µM |  |
| CCOC(=O)c1cccc(NC(=O)CSc2nc3ccccc3c(=O)n2CCOC)c1 |  | inactive: -12.5% |
| Cc1ccc(NC(=O)c2ccc(OC(=O)COc3ccc(Cl)cc3C)cc2)cc1 | inconclusive: 13 µM [activator, partial curve] |  |
| Cc1nn(-c2ccc([N+](=O)[O-])cc2)c(N)c1-c1ccccc1 | inconclusive: 1.3 µM [activator, full curve, poor fit] |  |
| C(=C\c1nnc2c3ccccc3ncn12)/c1ccccc1 | inconclusive: 9.2 µM [activator, partial curve] |  |
| CCOc1ccc(-c2cn3ccccc3n2)cc1[N+](=O)[O-] | inconclusive: 9.2 µM [activator, partial curve] |  |
| CCCCCOC(=O)NCC(O)c1ccccc1 (configuration not stated) | inconclusive: 7.31 µM [activator, partial curve] |  |
| O=C(N/N=C/c1cc(Cl)ccc1O)c1ccc(Br)cc1 |  | inactive: 14.3% |
| CCCOc1ccc(C(=O)NNC(=S)NC(=O)c2cccs2)cc1 | inconclusive: 29.1 µM [activator, single point] |  |
| Cc1ccc(Nc2cc(C)c3c(O)cccc3n2)cc1C | inconclusive: 10.3 µM [activator, partial curve] |  |
| Cc1cnc(NC(=O)CC2CCCC2)s1 | inconclusive: 10.3 µM [activator, partial curve, poor fit] |  |
| CN(Cc1ccccc1)S(=O)(=O)c1cccc(C(=O)O)c1 |  | inactive: -7.56% |
| Cc1ccc(C(=O)Nc2cccc3cccnc23)cc1C | inconclusive: 23.1 µM [activator, partial curve, poor fit] |  |
| Cc1ccc(/C=C/c2ccc3cccc(O)c3n2)s1 | active: 20.6 µM |  |
| COc1cccc(N2C(C(C)=O)=NN(c3ccccc3)C2c2ccc(N3CCOCC3)cc2)c1 (configuration not stated) | inconclusive: 20.6 µM [activator, partial curve, poor fit] |  |
| COc1ccc(C(=O)c2ccc(OC)cc2O)c(O)c1 | inconclusive: 9.2 µM [activator, single point] |  |

| Compound | Potency | activity change, positive = activation |
| --- | --- | --- |
| CC(C)(C)CN1CCNC(=O)C1CC(=O)NCCN1CCCc2ccccc21 (configuration not stated) |  | inactive: -0.289% |
| Cc1cc(Cl)c2oc(C(=O)NCCC3CCCCO3)c(C)c2c1 (configuration not stated) | inconclusive: 8.2 µM [activator, single point] |  |
| CC(C)c1ccc(C2CC(c3ccc(Br)cc3)=NN2C(N)=S)cc1 (configuration not stated) | inconclusive: 25.9 µM [activator, single point] |  |
| COc1ccc(CC(=O)N(C)Cc2ccc(C(C)(C)C)cc2)cc1S(=O)(=O)N1CCOCC1 | inconclusive: 25.9 µM [activator, partial curve, poor fit] |  |
| Cc1ccc(C(C(=O)NC2CCCCC2)N(Cc2ccccc2)C(=O)Cc2c[nH]c3ccccc23)o1 (configuration not stated) |  | inactive: -16.9% |
| S=C1NC2=C(CCCC2=C2SCCS2)C(c2ccccc2)N1 (configuration not stated) | inconclusive: 31.6 µM [activator, single point] |  |
| CCOC(=O)c1cc(C)n(-c2ccccc2)c1C | inconclusive: 14.6 µM [activator, partial curve, poor fit] |  |
| CN(C)c1ccc(C(C#N)c2ccc(Cl)cc2)nn1 (configuration not stated) |  | inactive: -0.539% |
| C/C(=N\NC(=O)c1ccc(Cn2cc([N+](=O)[O-])cn2)o1)c1cccc(NC(=O)C(C)C)c1 |  | inactive: -0.78% |
| Cc1ccc2nc(-c3ccc(NC(=O)CN4CCN(c5ccccn5)CC4)cc3)sc2c1 | inconclusive: 20.6 µM [activator, single point] |  |
| COc1ccc(-c2ncc(CN3CCC(CO)(Cc4cccc(OC)c4)CC3)cn2)cc1 |  | inactive: -8.84% |
| CCC(=O)Nc1ccc2c(c1)ncn2-c1ccccc1OC |  | inactive: 1.62% |
| C[C@H](CO)N1C[C@H](C)[C@@H](CN(C)C(=O)Nc2ccc3c(c2)OCO3)Oc2ccc(NC(=O)C3CCCCC3)cc2C1=O |  | inactive: 4.86% |
| Cn1nnnc1Sc1ncnc2scc(-c3ccc(Cl)cc3)c12 |  | inactive: -8.22% |
| Cc1ccc(/C=N/NC(=O)c2c(-c3ccccc3)noc2C)c(O)c1 | inconclusive: 20.6 µM [activator, partial curve, poor fit] |  |
| Cc1ccc(NC(=O)c2cnn(-c3ccccc3)c2C)cc1C | inconclusive: 0.206 µM [activator, full curve] |  |
| O=C(O)c1cccc(NC(=O)c2ccc3c(c2)C(=O)N(C2CCCCC2)C3=O)c1 | inconclusive: 3.26 µM [activator, partial curve, poor fit] |  |
| Nc1c(-c2ccccc2)cnn1-c1cccc(Cl)c1 | inconclusive: 2.59 µM [activator, full curve] |  |
| CCN1CCN(Cc2ccc(NC(=O)Nc3ccc(OC)cc3)cc2)CC1 | inconclusive: 18.4 µM [activator, partial curve] |  |
| CCOC(=O)C(C)Sc1ncc(-c2ccccc2)cn1 (configuration not stated) |  | inactive: 8.24% |
| CSc1ccccc1OCc1cc(C(=O)N(C)Cc2ccc(C)o2)no1 | inconclusive: 13 µM [activator, partial curve, poor fit] |  |
| CCOC(=O)Cc1csc(NC(=O)CSC2=NCCS2)n1 |  | inactive: -3.36% |
| O=S(=O)(NCc1cccs1)NCc1ccccc1F |  | inactive: 5.37% |
| Cc1ccc(-c2nc3ccccc3[nH]c2=O)cc1 | inconclusive: 14.6 µM [activator, partial curve] |  |
